# Measurements: PubChem BioAssay (Tox21)
# Several values for one entry are separate records, joined by “and”; a condition that tells them apart may be missing. Equal entries are not always repeated. The shares of active, inactive and inconclusive entries below differ from those in the screen. For some assays here: Where the call is inconclusive, the potency comes from a doubtful curve fit. A structure can be active in one record and inactive in another. Activity calls are given as the source filed them. Unless noted, the call rests on the fitted dose curve; in most records, active means well fitted curve in the direction sought with a large enough effect in the repeat runs; inconclusive means weak or mixed curves; inactive means no such curve, though single readings can be large; an effect the other way counts as inactive or inconclusive.
# How the values were obtained:
# [1] = qHTS assay to identify small molecule antagonists of the androgen receptor (AR) signaling pathway using the MDA cell line in the presence of 0.5 nM R1881 - cell viability counter screen (AID 1259242); further: nearly all actives have a fitted effect of over 45% in size; further: potency means the concentration at half of the fitted maximal effect
# Procedure, shortened: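 MDA-kb2 cells (MMTV-luciferase, AR/GR responsive) were treated with compounds plus 0.5 nM R1881 (final) for 16 hr at 37C, 0% CO2. Viability was then read in the same wells as live-cell protease fluorescence (CellTiter-Fluor, 30 min).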
# [2] = qHTS assay to identify small molecule HDAC inhibitors (AID 1259364); further: potency means the concentration at half of the fitted maximal effect; nearly all actives have a fitted effect of over 45% in size
# Procedure, shortened: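 Wild-type HCT-116 cells, plated overnight at 37 C, exposed to compounds 2 hr at 37 C; luminogenic HDAC-Glo substrate then added 30 min at room temperature. Luminescence reports relative endogenous class I/II HDAC activity.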
# [3] = qHTS assay to identify small molecule agonists of the sonic hedgehog signaling (Shh) pathway - cell viability counter screen (AID 1259366); further: potency means the concentration at half of the fitted maximal effect; nearly all actives have a fitted effect of over 50% in size
# Procedure, shortened: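 CellTiter-Fluor fluorescence read-out, 1 hr at 37C, added after 23hr compound exposure. Cells: 3T3 Gli1-Luc, an NIH/3T3 clone with stably integrated Gli1-Luc reporter, plated 4hr before compound.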
# [4] = qHTS assay to identify small molecule antagonists of the sonic hedgehog signaling (Shh) pathway - cell viability counter screen (AID 1259367); further: nearly all actives have a fitted effect of over 55% in size; further: potency means the concentration at half of the fitted maximal effect
# Procedure, shortened: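 NIH/3T3-derived Gli1-Luc reporter cells, 2,000/well, plated 4 hr before compound addition, then stimulated with conditioned medium for 24 hr at 37C. Viability measured in the same wells by CellTiter-Fluor fluorescence, reagent added at 23 hr for 1 hr.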
# [5] = molecular target: Androgen receptor (Homo sapiens) (UniProt P10275); assay: qHTS assay to identify small molecule agonists of the androgen receptor (AR) signaling pathway in the presence of an antagonist (AID 1259381; calls by dose curve; further: potency means the concentration at half of the fitted maximal effect; nearly all actives have a fitted effect of over 15% in size)
# Procedure, shortened: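 MDA-kb2 cells carrying MMTV-luciferase (AR/GR responsive), 3,000 cells/well, co-treated with 3.0 uM nilutamide final. Compounds at 15 concentrations, 16 hr at 37C without CO2. Luciferase luminescence read after 30 min with ONE-Glo.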
# [6] = qHTS assay to identify small molecule antagonists of the estrogen receptor beta (ER-beta) signaling pathway - cell viability counter screen (AID 1259382); further: potency means the concentration at half of the fitted maximal effect; nearly all actives have a fitted effect of over 55% in size
# Procedure, shortened: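 ER-beta-UAS-bla HEK293T cells in 2% charcoal-stripped FBS medium, treated with compound plus 1 nM 17-beta-estradiol for 16 h at 37C. Viability read by CellTiter-Glo luminescence after 30 min at room temperature in the same wells.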
# [7] = molecular target: Thyrotropin receptor (Homo sapiens) (UniProt P16473); assay: qHTS assay to identify small molecule antagonists of the thyroid stimulating hormone receptor (TSHR) signaling pathway (AID 1259385; calls by dose curve; further: nearly all actives have a fitted effect of over 20% in size; further: potency means the concentration at half of the fitted maximal effect; on activity change, negative = inhibition: on the % scale 0 is the no-effect control and ±100 the full control effect); conditions: TSHR-HEK293 cAMP HTRF, TSH-stimulated antagonist mode; activity change, negative = inhibition: at 92.4 µM (top of the series) unless noted
# Procedure, shortened: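 TSHR-HEK293 cells (800/well) plated 18 h, then compounds with Ro20-1724 and TSH at 1.5 ng/mL final, 30 min at room temperature. cAMP quantified by HTRF (cAMP-d2/anti-cAMP-cryptate, 1 h); 15 concentrations in triplicate.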
# [8] = qHTS assay to identify small molecule antagonists of the sonic hedgehog signaling (Shh) pathway (AID 1259369; calls by dose curve; further: nearly all actives have a fitted effect of over 45% in size; further: potency means the concentration at half of the fitted maximal effect; on activity change, negative = inhibition: on the % scale 0 is the no-effect control and ±100 the full control effect)
# Procedure, shortened: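 NIH/3T3-derived Gli1-Luc reporter cells plated 4 h, dosed with compound, then stimulated with conditioned medium for 24 h at 37 C. Firefly luciferase luminescence read after 30 min with detection reagent at room temperature.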
# [9] = molecular target: Estrogen receptor beta (Homo sapiens) (UniProt Q92731); assay: qHTS assay to identify small molecule agonists of the estrogen receptor beta (ER-beta) signaling pathway (AID 1259377; active means well fitted activation curve with a large enough effect in the signal ratio in the repeat runs, not every such curve was filed as active; inconclusive means weak or mixed curves, or effect the other way; the % refers to the signal ratio; further: potency means the concentration at half of the fitted maximal effect); conditions: ER-beta-UAS-bla HEK293T, beta-lactamase FRET ratio, 16 h; activation: at 92.4 µM (top of the series) unless noted
# Procedure, shortened: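 Beta-lactamase reporter readout: fluorescence of LiveBLAzer B/G FRET substrate after 2 h at room temperature, following 16 h compound treatment of ER-beta-UAS-bla HEK293T cells at 37C in 2% charcoal-stripped FBS medium.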
# [10] = molecular target: Estrogen receptor beta (Homo sapiens) (UniProt Q92731); assay: qHTS assay to identify small molecule antagonists of the estrogen receptor beta (ER-beta) signaling pathway (AID 1259378; active means well fitted inhibition curve with a large enough effect in the signal ratio in the repeat runs, not every such curve was filed as active; inconclusive means weak or mixed curves, or effect the other way; inactive means no such curve, though single readings can be large or run the other way; the % refers to the signal ratio; further: potency means the concentration at half of the fitted maximal effect; on activity, negative = inhibition: on the % scale 0 is the no-effect control and ±100 the full control effect); conditions: ER-beta-UAS-bla HEK293T, beta-lactamase FRET ratio, 16 h; activity, negative = inhibition: at 92.4 µM (top of the series) unless noted
# Procedure, shortened: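 ER-beta-UAS-bla HEK293T cells in 2% charcoal-stripped FBS medium treated with compound plus 1nM final 17-beta-estradiol for 16 hr at 37C. Beta-lactamase reporter read by FRET substrate fluorescence after 2 hours at room temperature.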
# [11] = qHTS assay to identify small molecule agonists of the estrogen receptor beta (ER-beta) signaling pathway - cell viability counter screen (AID 1259380); further: potency means the concentration at half of the fitted maximal effect; nearly all actives have a fitted effect of over 30% in size
# Procedure, shortened: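 ER-beta-UAS-bla HEK293T cells in medium with 2% charcoal-stripped FBS, pre-incubated 6 hr, then treated 16 hr at 37C. Cytotoxicity read in the same wells by CellTiter-Glo luminescence after 30 min at room temperature.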
# [12] = qHTS assay to identify small molecule phospholipidosis (PLD) inducers (AID 1259344; active means well fitted curve in the direction sought with a large enough effect; inconclusive means small, poorly fitted or top-dose-only effect, or another doubt; inactive means no such curve, though single readings can be large; an effect the other way counts as inactive or inconclusive; further: potency means the concentration at half of the fitted maximal effect)
# Procedure, shortened: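 HepG2 cells, 900/well, treated with compound plus LipidTOX Red for 24 h at 37 C; amiodarone positive and DMSO negative controls. Fixed with paraformaldehyde/Hoechst, then high-content imaging scored LipidTOX pit count and integrated intensity per well and per cell.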
# [13] = qHTS assay to identify small molecule HDAC inhibitors - cell viability counter screen (AID 1259365); further: potency means the concentration at half of the fitted maximal effect; nearly all actives have a fitted effect of over 50% in size
# Procedure, shortened: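 HCT-116 (wild type), 1,500 cells/well, overnight 37C/5% CO2; compound in DMSO 2hr; CellTiter-Glo 30min RT; luminescence read.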
# [14] = qHTS assay to identify small molecule agonists of the androgen receptor (AR) signaling pathway in the presence of an antagonist - cell viability counter screen (AID 1259379); further: potency means the concentration at half of the fitted maximal effect; nearly all actives have a fitted effect of over 25% in size
# Procedure, shortened: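 MDA-kb2 cells (MMTV-luciferase, AR/GR), 3,000/well, 5 h attachment, then 3.0 µM nilutamide (final) and compounds at 15 concentrations. Viability by CellTiter-Fluor fluorescence after 16 h at 37 °C, 0% CO2, in the reporter wells.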
# [15] = molecular target: Estrogen receptor (Homo sapiens) (UniProt P03372); assay: qHTS assay to identify small molecule agonists of the estrogen receptor alpha (ER-alpha) signaling pathway in the presence of an antagonist (AID 1259383; calls by dose curve; further: top concentration of the series differs between compounds; on the % scale 0 is the no-effect control and ±100 the full control effect; nearly all actives have a fitted effect of over 15% in size)
# Procedure, shortened: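 VM7Luc4E2 cells express endogenous full-length ER-alpha with an ERE-luciferase reporter and were hormone-deprived for 5 days. Compounds at 15 concentrations were added with 10.0nM ICI-182,780 for 22hr at 37C. Luminescence was read with ONE-Glo.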
# [16] = qHTS assay to identify small molecule agonists or antagonists of the thyroid stimulating hormone receptor (TSHR) signaling pathway - wild type cell line counter screen (AID 1259384; calls by dose curve; further: on the % scale 0 is the no-effect control and ±100 the full control effect); conditions: HEK293 wild type, cAMP HTRF counter-screen; cAMP activity change: at 92.4 µM (top of the series), stronger effect = higher value unless noted
# Procedure, shortened: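 Wild-type Hek293 cells, 800/well, 18 h at 37C, then compound with Ro20-1724 for 30 min RT. cAMP by HTRF (cAMP-d2/anti-cAMP cryptate), 1 h RT, fluorescence read. 15 concentrations, triplicates.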
# [17] = qHTS assay to identify small molecule agonists of the estrogen receptor alpha (ER-alpha) signaling pathway in the presence of an antagonist - cell viability counter screen (AID 1259386);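 further: potency means the concentration at half of the fitted maximal effect; cells exposed to compounds for 22 h at 37 °C before the viability read; nearly all actives have a fitted effect of over 30% in size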
# Procedure, shortened: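 Cell viability in VM7Luc4E2 cells (endogenous full-length ER-alpha) measured by CellTiter-Fluor fluorescence in the same wells as the luciferase screen. Cells pre-cultured 5 days in charcoal-stripped serum, then treated 22 h with compounds at 15 concentrations plus 10.0nM ICI-182,780.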
# Tags describe the fitted curve by direction and shape or compound fluorescence and quenching.
# Sequence of UniProt P16473 (P16473 whole entry, looked up): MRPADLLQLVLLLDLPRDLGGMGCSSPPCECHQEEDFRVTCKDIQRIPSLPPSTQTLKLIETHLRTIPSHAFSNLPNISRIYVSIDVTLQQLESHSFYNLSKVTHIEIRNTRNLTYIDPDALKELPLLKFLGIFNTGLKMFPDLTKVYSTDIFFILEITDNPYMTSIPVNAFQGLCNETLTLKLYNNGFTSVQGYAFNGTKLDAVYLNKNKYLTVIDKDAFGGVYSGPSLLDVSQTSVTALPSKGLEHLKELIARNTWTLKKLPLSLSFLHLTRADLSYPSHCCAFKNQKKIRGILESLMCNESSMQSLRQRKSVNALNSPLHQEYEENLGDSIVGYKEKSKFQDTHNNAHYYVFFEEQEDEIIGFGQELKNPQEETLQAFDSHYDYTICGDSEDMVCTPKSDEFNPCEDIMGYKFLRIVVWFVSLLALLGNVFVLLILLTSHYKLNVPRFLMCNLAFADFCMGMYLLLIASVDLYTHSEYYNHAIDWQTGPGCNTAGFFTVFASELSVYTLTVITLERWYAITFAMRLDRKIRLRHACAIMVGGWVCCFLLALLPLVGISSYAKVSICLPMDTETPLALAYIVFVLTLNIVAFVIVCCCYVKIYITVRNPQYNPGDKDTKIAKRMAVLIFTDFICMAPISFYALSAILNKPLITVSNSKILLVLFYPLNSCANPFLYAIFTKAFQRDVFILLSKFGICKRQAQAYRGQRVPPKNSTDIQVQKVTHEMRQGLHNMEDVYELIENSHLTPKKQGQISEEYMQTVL
# Sequence of UniProt Q92731 (Q92731 whole entry, looked up): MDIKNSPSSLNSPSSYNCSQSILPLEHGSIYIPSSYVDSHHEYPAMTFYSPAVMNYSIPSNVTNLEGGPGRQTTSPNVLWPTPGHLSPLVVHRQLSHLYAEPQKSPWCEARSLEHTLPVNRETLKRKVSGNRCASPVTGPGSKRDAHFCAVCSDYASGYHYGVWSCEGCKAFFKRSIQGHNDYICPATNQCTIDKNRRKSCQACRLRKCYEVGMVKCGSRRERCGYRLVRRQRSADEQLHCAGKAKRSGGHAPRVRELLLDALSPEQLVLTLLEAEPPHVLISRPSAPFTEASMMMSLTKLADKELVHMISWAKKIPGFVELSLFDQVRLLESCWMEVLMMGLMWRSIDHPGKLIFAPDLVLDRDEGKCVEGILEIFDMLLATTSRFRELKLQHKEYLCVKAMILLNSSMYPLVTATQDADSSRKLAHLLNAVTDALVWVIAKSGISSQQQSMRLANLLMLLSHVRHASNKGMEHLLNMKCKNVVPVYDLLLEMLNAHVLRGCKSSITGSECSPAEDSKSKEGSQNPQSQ
# Sequence of UniProt P10275 (P10275 whole entry, looked up): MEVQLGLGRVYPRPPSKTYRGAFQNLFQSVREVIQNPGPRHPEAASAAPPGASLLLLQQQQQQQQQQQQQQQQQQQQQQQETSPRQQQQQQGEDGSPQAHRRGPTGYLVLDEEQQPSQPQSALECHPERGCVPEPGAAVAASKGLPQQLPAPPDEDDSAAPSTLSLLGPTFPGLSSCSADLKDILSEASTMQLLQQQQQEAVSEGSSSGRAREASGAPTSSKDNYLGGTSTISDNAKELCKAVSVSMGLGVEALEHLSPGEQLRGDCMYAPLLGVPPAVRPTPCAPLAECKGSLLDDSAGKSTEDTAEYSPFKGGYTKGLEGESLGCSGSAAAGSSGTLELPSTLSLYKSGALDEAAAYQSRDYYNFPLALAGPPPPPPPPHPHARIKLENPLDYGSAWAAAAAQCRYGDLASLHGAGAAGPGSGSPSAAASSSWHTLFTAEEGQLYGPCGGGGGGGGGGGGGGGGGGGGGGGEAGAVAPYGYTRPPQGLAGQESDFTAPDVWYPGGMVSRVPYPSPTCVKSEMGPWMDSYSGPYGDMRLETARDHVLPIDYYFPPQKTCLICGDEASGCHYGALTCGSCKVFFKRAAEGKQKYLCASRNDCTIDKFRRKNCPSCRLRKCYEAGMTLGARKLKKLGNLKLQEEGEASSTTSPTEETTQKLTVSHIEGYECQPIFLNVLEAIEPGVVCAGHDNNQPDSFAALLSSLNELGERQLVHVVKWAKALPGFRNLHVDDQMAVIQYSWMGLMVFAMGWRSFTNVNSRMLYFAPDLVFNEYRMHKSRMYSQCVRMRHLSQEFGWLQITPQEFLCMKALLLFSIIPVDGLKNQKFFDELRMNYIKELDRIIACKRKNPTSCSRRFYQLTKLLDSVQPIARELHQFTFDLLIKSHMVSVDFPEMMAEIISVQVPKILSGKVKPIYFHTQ
# Sequence of UniProt P03372 (P03372 whole entry, looked up): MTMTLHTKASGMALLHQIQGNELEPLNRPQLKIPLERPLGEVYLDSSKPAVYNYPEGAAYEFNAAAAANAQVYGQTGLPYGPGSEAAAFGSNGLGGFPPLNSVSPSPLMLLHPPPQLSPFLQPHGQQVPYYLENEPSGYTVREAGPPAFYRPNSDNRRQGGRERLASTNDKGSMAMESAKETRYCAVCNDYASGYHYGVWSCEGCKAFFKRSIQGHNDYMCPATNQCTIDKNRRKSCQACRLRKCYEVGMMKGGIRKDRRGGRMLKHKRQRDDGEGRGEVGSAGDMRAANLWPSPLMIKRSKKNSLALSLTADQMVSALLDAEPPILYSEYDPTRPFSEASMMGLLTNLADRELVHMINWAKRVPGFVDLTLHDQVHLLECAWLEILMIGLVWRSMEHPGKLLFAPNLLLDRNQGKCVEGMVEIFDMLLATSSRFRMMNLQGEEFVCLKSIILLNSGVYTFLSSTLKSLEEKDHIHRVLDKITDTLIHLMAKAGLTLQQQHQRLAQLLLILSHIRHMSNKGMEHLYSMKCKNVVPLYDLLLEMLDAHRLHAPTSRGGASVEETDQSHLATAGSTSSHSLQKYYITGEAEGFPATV
smiles,measurement,setting,value
CC1=C(/C=C/C(C)=C/C=C/C(C)=C/C(=O)Nc2ccc(O)cc2)C(C)(C)CCC1,Potency,[1],"inconclusive: 49.8 µM [cytotoxic, partial curve] and active: 23.7 µM"
same,Potency,[2],inconclusive: 25 µM [inhibitor]
same,Potency,[3],active: 31.4 µM and active: 21.1 µM
same,Potency,[4],active: 28 µM and active: 21.1 µM
same,Potency,[5],active: 8.85 µM
same,Potency,[6],active: 70.3 µM and inconclusive: 33.5 µM [cytotoxic]
same,Potency,[7],"inconclusive: 78.9 µM [falling, partial curve, poor fit]"
O=C1C=CC(=O)N1c1ccc(Cc2ccc(N3C(=O)C=CC3=O)cc2)cc1,Potency,[1],"inconclusive: 54.5 µM [cytotoxic, partial curve]"
same,Potency,[2],"inconclusive: 12.2 µM [inhibitor, full curve, poor fit]"
same,Potency,[3],active: 7.7 µM
same,Potency,[8],"inconclusive: 5.45 µM [inhibitor, full curve]"
same,Potency,[9],"inconclusive: 48.6 µM [rising, partial curve]"
same,Potency,[10],inconclusive: 48.6 µM [partial curve]
same,Potency,[11],active: 48.6 µM
same,Potency,[6],"inconclusive: 27.3 µM [cytotoxic, full curve]"
same,Potency,[7],active: 48.6 µM
O=C(Nc1ccc(Cl)cc1)Nc1ccc(Cl)c(Cl)c1,Potency,[1],"inconclusive: 48.3 µM [cytotoxic, partial curve] and active: 21.7 µM and active: 23.7 µM"
same,Potency,[2],"inconclusive: 21.7 µM [inhibitor, partial curve]"
same,Potency,[4],"inconclusive: 15.3 µM [cytotoxic, partial curve, poor fit] and inactive"
same,Potency,[8],"active: 12.1 µM and inactive and inconclusive: 13.3 µM [inhibitor, single point]"
same,Potency,[10],"inconclusive: 4.83 µM [inhibitor, full curve, poor fit] and inconclusive: 7.7 µM [inhibitor, full curve] and inconclusive: 5.31 µM [inhibitor, full curve]"
same,Potency,[11],"active: 1.08 µM and active: 2.17 µM and inconclusive: 944 nM [cytotoxic, full curve]"
same,Potency,[6],"inconclusive: 1.54 µM [cytotoxic, full curve]"
same,"activity change, negative = inhibition",[7],inconclusive: -6.69%
C[C@H]1O[C@@H](O[C@H]2CC[C@@]3(C)[C@H](CC[C@@H]4[C@@H]3C[C@@H](O)[C@]3(C)[C@@H](C5=CC(=O)OC5)CC[C@]43O)C2)C[C@H](O)[C@@H]1O[C@H]1C[C@H](O)[C@H](O[C@H]2C[C@H](O)[C@H](O[C@@H]3O[C@H](CO)[C@@H](O)[C@H](O)[C@H]3O)[C@@H](C)O2)[C@@H](C)O1,Potency,[1],inactive
same,Potency,[12],"inconclusive: 0.112 µM [activator, partial curve, poor fit]"
same,Potency,[9],"inconclusive: 0.473 µM [rising, full curve]"
same,"activity, negative = inhibition",[10],inconclusive: -22.9% [at 42.5 µM]
CCCCCCCCNC(C)C(O)c1ccc(SC(C)C)cc1 (stereo unspecified),Potency,[1],active: 23.7 µM
same,Potency,[13],"inconclusive: 29.8 µM [cytotoxic, partial curve]"
same,Potency,[3],active: 16.8 µM
same,Potency,[4],"inconclusive: 33.5 µM [cytotoxic, single point]"
same,Potency,[8],active: 18.8 µM
same,Potency,[9],"inconclusive: 23.7 µM [falling, partial curve]"
same,Potency,[10],"inconclusive: 33.5 µM [cytotoxic, single point]"
same,Potency,[14],active: 23.7 µM
same,Potency,[11],active: 11.9 µM
same,Potency,[6],active: 13.3 µM
same,Potency,[7],"inconclusive: 33.5 µM [falling, single point]"
CCOC(=O)O[C@H](C)OC(=O)c1ccc2c(c1)cc(C(=O)NC1CCN(C(C)C)CC1)n2Cc1cc(-c2ccc(Cl)s2)on1,Potency,[1],active: 40.4 µM
same,Potency,[13],active: 50.9 µM
same,Potency,[3],active: 12.8 µM
same,Potency,[4],active: 20.3 µM
same,Potency,[8],active: 9.05 µM
same,Potency,[10],"inconclusive: 32.1 µM [cytotoxic, full curve]"
same,Potency,[11],active: 20.3 µM
same,Potency,[15],inactive
same,cAMP activity change,[16],inconclusive: 1.98%
same,Potency,[7],active: 64.1 µM
same,Potency,[17],inconclusive: 64.1 µM [cytotoxic]
CN(C)CCCN1c2ccccc2CCc2ccc(Cl)cc21,Potency,[1],"inconclusive: 33.5 µM [cytotoxic, single point]"
same,Potency,[12],"inconclusive: 17.8 µM [activator, single point]"
same,Potency,[3],"inconclusive: 13.3 µM [cytotoxic, partial curve]"
same,Potency,[4],active: 48.6 µM
same,Potency,[7],active: 68.6 µM and active: 29.8 µM
same,Potency,[17],"inconclusive: 16.8 µM [cytotoxic, partial curve]"
